Experimental data from the supplement of paper PMC11417369.
The other results are listed elsewhere or left out.

These sequences were tested on PfSIP2 AP2 domain 1 (GST-tagged) (assay: gcPBM binding intensity (ln(normalized median fluorescence intensity)); higher = stronger DNA binding).
In short: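 After 1 h on an Agilent 4 × 180k array of primer-extended double-stranded 36-bp intergenic genomic probes and negative controls, bound GST-tagged P. falciparum DNA-binding domains were detected with Alexa488 anti-GST antibody and scanned at 488 nm. The domains had been expressed in E. coli, and binding took place in 1× PBS with 1% milk, 0.2 mg/ml BSA, 0.5% salmon testes DNA and 0.03% Triton X-100. Binding intensity is the highest Masliner-normalised natural-log median intensity across replicate spots of either probe orientation.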

Sequence | gcPBM binding intensity (ln)
AACATAATAAAAATGGATATAATTCAAAGTTTGTAA [TGCATGCA_negctrl_site529] | 6.72
AGGTCTGTTTTATATTGTACATAAAAAGTGCACATG [XGTACX_site4529] | 11.4
TTCTATAAGTATAAATGTACAAAAAAAACATCATTC [XGTACX_site5450] | 7.14
CATATTCCAAGAATGTGTACATAATTTTTTTTTTTT [XGTACX_site4310] | 7
CTCATAATTTCTGAACGTACGTATTTCTCATTTTTA [XGTACX_site7296] | 7.13
ATTTTTTTTTAATGCAAAAGGTGATGATCGGTCATA [CACACA_negctrl_site959] | 6.82
TTTTCTTGATTTTGTAGTACATTTTTACGATATTTT [XGTACX_site63] | 7.11
ATGTAAATTATTATTCTATTGTTATATACACAATAT [XGTACX_negctrl_site332] | 6.85
CACATACATATATACACACACAAAATAATAAAATAA [CACACA_site2308] | 7.35
TTTTTAAAAATAACAGAAAAGAATTACAGATTTTTT [XGTACX_negctrl_site472] | 6.8
TTTTTTACATCCATAAAACTTTTTCTCTTTTAAAAT [CACACA_negctrl_site1745] | 6.79
AGAGAGAAAGGTATAACATGCGATAAATTTTAGAAG [TGCATGCA_site37] | 6.88
ATATAGTTCGTTTATACACACATGATAAGATATTTA [CACACA_site1947] | 7.16
AAATCACTTTTTAAGTGTACTTGGTCTTTCTCATTT [XGTACX_site7221] | 6.81
TTAAAAATATTATGTACACACATTTTAGATATTTGT [CACACA_site1846] | 6.99
TAAATATATATATATTGTACAAAACAAATGTGAATT [XGTACX_site696] | 7.28
TCCTAATATTTGTCAAATTTCAAAATAAATAAAATG [XGTACX_negctrl_site540] | 6.88
TAATTAAAATCATATACACACCCATATATATATATA [CACACA_site8524] | 9.1
TATATATATATGTACACACACACATATAAATAAATA [CACACA_site443] | 9.18

Sequence | gcPBM binding intensity (ln)
TAAAAGGGGATATATGAACACACAAAAAAAAAATAT [CACACA_site8940] | 7.13
TTAAAAAAAAAAAAAAGTACATAAGTATATATAATA [XGTACX_site4295] | 7.55
CATATTTTTTCTTAAACACACACATATATATATATA [CACACA_site8920] | 9.03
ATATTAAGTTTTATTACACACTCTCAATTTTTATTT [CACACA_site4206] | 6.98
TAAATGTTTCTCAAAAGTACACATGTGATATTTCTT [XGTACX_site2065] | 6.84
TATATATAATTATAAGAACACACATATATATATATA [CACACA_site8786] | 9.52
TACAAATATAGATGCACACACATATAGGTATATGTG [CACACA_site7439] | 7.48
ATATATTTCTGTCAAGCACACATAATATTAATATAT [CACACA_site7993] | 7.24
AATGATACTTAGGGGCATGTCTCTGGGGGCATAACC [CACACA_negctrl_site591] | 7.8
CATATTATATTTTCATGTACACATAACATATTTATA [XGTACX_site4787] | 7.27
GTTATAAACAAAATAAATATATGAATATATAATAAT [XGTACX_negctrl_site96] | 6.96
ATATAGTAAATGTTCACACATACAAATATATATATA [CACACA_site5518] | 8.71
AAGTTTTCTTAAAGCTGTACTTTTTAAAAATAAAAT [XGTACX_site7716] | 6.73
TTTAACATAAATTAAACACACAATAAAATACATTAA [CACACA_site6699] | 6.87
CATAAATACAGATATACACACATATATATATATATA [CACACA_site4528] | 9.67
ATAATACATATAGAAGGTACACTATTATTTTCCTGA [XGTACX_site903] | 6.8
GAGGTACATTAATTAGTGCATTAAAATTTTTATCCT | 8.39
ATTATCCATGCATTTACACACACACTAATAAAAATT [CACACA_site9358] | 7.99
TAATTTCTTATGTATTGTACAAATAATATATTATTT [XGTACX_site3066] | 7.02

Sequence | gcPBM binding intensity (ln)
ATTCAAAATAATCACAGTACACATGAGATTATCTTT [XGTACX_site2197] | 6.8
ACTTCATAAACATTTTGTACGTATGTATCTTTTTAT [XGTACX_site7012] | 7.29
TTAATATGGAAATGTTGTACATTTCTTGAAGCATTC [XGTACX_site525] | 6.69
TTATTGAAAAACATAATATCTAAGAGGGTAATATAT [GTGCAC_negctrl_site599] | 6.84
TGTATTATTAATATTTGTACGTAATAATAAAAACAT [XGTACX_site3716] | 7.02
TGGAAACAAAAACACACACACAAAAAAAAAAAAAAA [CACACA_site3209] | 6.86
TCCTTAGAAATATTGATCATAAACTGGAAAGGTATA [XGTACX_negctrl_site354] | 6.95
GAAATATATAAATTGACACACACATATATACATATA [CACACA_site8323] | 7.02
ATTTATCCAAAAAAATGTACAGGATAATTTGTTCAT [XGTACX_site7737] | 6.88
TATTATGCCTTTAATATACACACTAATATTTTTTTG [CACACA_site2045] | 6.92
TATAAAAATTAATATTGTACGTTTTATGAAAATAAA [XGTACX_site8237] | 6.93
CATAATACCTATAACACACACAATTATACATAAACT [CACACA_site7506] | 7.15
GGGTTCAATTTAAAGAGTACAAAAAATGTAGGTCAT [XGTACX_site5290] | 7.07
TTTTAATAAACAAAACGTACACATTATTATTATATA [XGTACX_site335] | 7.01
TTTGTAGTTTGCACATGTACACATTTCAAAATAAAG [XGTACX_site7568] | 7.49
AATATATACATATATTGTACATATAGTTTCTTGCAT [XGTACX_site7871] | 7.05
TTTTTTTTTTTGTGGGTGCGTTTATAAAAACAGGAA | 11.1
TTTTTTTCTTGTTTTAAATAATATACTGGAAAAAAA [CACACA_negctrl_site585] | 6.9
